From PubChem BioAssay AID1240 (Sanford-Burnham Center for Chemical Genomics, 2008)
Hit rate of the full screen: of about 50,000 compounds, about 800 (1.6%) showed an effect of 50% or more. Some of the results follow.

Each compound was assayed against Bcl-2-like protein 10 (Homo sapiens) (UniProt Q9HD36) (assay: Phenotype converters, Bcl-B/TR3 peptide binding displacement, primary biochemical FP (AID 1240;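 also: 0% = Bcl-B with tracer peptide and DMSO and 100% = tracer peptide lacking Bcl-B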)). Details: GST-Bcl-B / FITC-TR3 peptide fluorescence polarization; stronger effect = higher value; compound at 3.75 mg/L.
Chain of UniProt Q9HD36 (Q9HD36 whole entry, looked up): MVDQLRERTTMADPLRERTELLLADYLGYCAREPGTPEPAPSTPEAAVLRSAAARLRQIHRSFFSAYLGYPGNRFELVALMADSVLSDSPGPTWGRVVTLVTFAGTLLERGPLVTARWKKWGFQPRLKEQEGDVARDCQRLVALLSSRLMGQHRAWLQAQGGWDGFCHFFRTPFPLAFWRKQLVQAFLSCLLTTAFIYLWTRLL

Which displacement does the source give for CCOC(=O)C1=C(C)NC(C)=C(C(=O)OC)C1c1ccc(C)cc1 (stereo unspecified) here?
The displacement was 5.2%.

Which displacement does the source give for COc1cc2c(cc1OC)C(Nn1cnnc1)=NC1(CCCC1)C2 here?
Its displacement is -5.2%.

For CCOc1ccc(/C=C2/C(=O)NC(=O)N(c3ccc(OC)cc3)C2=O)c(OCC)c1, which displacement is on record?
The displacement was -4%.

Which displacement does the source give for NC(=O)CN(c1ccc(F)cc1)S(=O)(=O)c1ccccc1 here?
Its displacement is 0.8%.

COC(=O)c1ccc(NC(=O)Cc2ccccc2[N+](=O)[O-])cc1 was tested. Which displacement did it give?
The displacement was -2.9%.

For CC(=O)CC(=O)Nc1ccc(C)c(Cl)c1, which displacement is on record?
Its displacement is -2.4%.

Which displacement does the source give for CN1C(=O)C(=O)/C(=C(\O)c2ccc(Cl)cc2)C1c1cccc([N+](=O)[O-])c1 (stereo unspecified) here?
The displacement was -3.3%.

With O=C(CN1C(=O)c2ccccc2C1=O)Nc1ccc(Cl)cn1 as the compound, how does the displacement read?
Its displacement is 0.4%.

Which displacement does the source give for O=C1CC(NC2CCCCC2)C(=O)N1c1ccc(I)cc1 (stereo unspecified) here?
The displacement was -3.6%.

Which displacement does the source give for Cc1ccc2c(NC(=O)c3ccccc3F)cccc2n1 here?
The displacement was 2.3%.

Which displacement does the source give for O=[N+]([O-])c1ccc(Nc2nc(-c3ccccc3)cc(-c3ccccc3)n2)cc1 here?
The displacement was 16.8%.

How did the displacement turn out when CCOC(=O)c1c(-c2ccc(C)cc2)csc1NC(=O)c1ccccc1F was run?
Its displacement is 13.2%.

Which displacement does the source give for O=C(NC(=S)Nc1cccc(-c2nc3ccccc3s2)c1)c1ccco1 here?
The displacement was 9.7%.

CCCOC(=O)c1ccc(NC(=O)c2cccc([N+](=O)[O-])c2C)cc1 was tested. Which displacement did it give?
Its displacement is -5.3%.

For COc1ccc(NC(=O)c2ccccc2NC(=O)c2ccc(C)cc2)cc1, which displacement is on record?
The displacement was -10.2%.

With O=C(N/N=C\c1c(F)cccc1Cl)c1cnccn1 as the compound, how does the displacement read?
Its displacement is -8%.

For COc1cc(/C=N/Nc2nc(N3CCOCC3)nc(N3CCOCC3)n2)cc(Cl)c1O, which displacement is on record?
Its displacement is 8.7%.

With CCn1c2c(c3cc(C4CCCCC4)ccc31)CCCC2O (stereo unspecified) as the compound, how does the displacement read?
Its displacement is 2.5%.

For O=C(COC(=O)c1ccccc1)c1ccc2c(c1)OCCO2, which displacement is on record?
The displacement was -12.1%.

How did the displacement turn out when O=C(c1cccc(F)c1)N1CCN(Cc2ccc(C(F)(F)F)cc2)CC1 was run?
Its displacement is 1.9%.

With Cc1ccc(C(=O)N2CCN(c3ccc(F)cc3)CC2)cc1C as the compound, how does the displacement read?
Its displacement is 4.5%.

How did the displacement turn out when COc1ccccc1/C=c1\sc2nc(-c3ccc(C)cc3)nn2c1=O was run?
The displacement was 61.7%.

How did the displacement turn out when COc1ccc(C2=NN(C(=O)CCC(=O)O)C(c3cccs3)C2)cc1 (stereo unspecified) was run?
The displacement was 15.9%.

How did the displacement turn out when N#C/C(=C\c1ccc(N2CCOCC2)o1)C(=O)NCC1CCCO1 (stereo unspecified) was run?
Its displacement is -102%.

Which displacement does the source give for CCc1ccc(S(=O)(=O)Nc2cc(-c3c(O)ccc4ccccc34)c(O)c3ccccc23)cc1 here?
The displacement was 7.1%.

With O=C(CC1Sc2ccc(C(F)(F)F)cc2NC1=O)Nc1ccccc1F (stereo unspecified) as the compound, how does the displacement read?
Its displacement is -24.4%.

How did the displacement turn out when COC(=O)CSc1nc(N)c2c3c(sc2n1)CC(C(C)(C)C)CC3 (stereo unspecified) was run?
The displacement was 4.1%.

Which displacement does the source give for O=C1c2ccccc2C(=O)N1CCc1nc2ccccc2c(=O)n1Cc1ccccc1 here?
The displacement was -3.6%.

For CC(C)NC(=O)C12CC3CCC(CC(C3)C1)C2, which displacement is on record?
The displacement was 15.1%.

With C=CCN1C(=O)/C(=C/c2ccc(C)cc2)SC1=S as the compound, how does the displacement read?
Its displacement is 9%.

How did the displacement turn out when Cc1ccccc1C(=O)NNC(=S)Nc1ccccc1 was run?
The displacement was -24.2%.

With O=C(N/N=C\c1cccc(O)c1)C(=O)N/N=C/c1cccc(O)c1 as the compound, how does the displacement read?
Its displacement is -10.8%.

CC(C)OC(=O)/C=C(\N)c1ccccc1 was tested. Which displacement did it give?
The displacement was 14.6%.

How did the displacement turn out when CC(=O)CC(=O)NCCc1ccccc1 was run?
Its displacement is -2.7%.

With Cc1ccc(NC(=O)c2ccncc2)cc1 as the compound, how does the displacement read?
The displacement was -5.8%.

For CCOc1ccc(NC(=O)c2cccc(F)c2)c([N+](=O)[O-])c1, which displacement is on record?
Its displacement is 3.3%.

O=C1/C(=C\c2cccnc2)SC(=S)N1c1cccc(C(F)(F)F)c1 was tested. Which displacement did it give?
Its displacement is -6%.

COC(=O)c1c(O)ccc(Oc2ccccc2)c1C(=O)OC was tested. Which displacement did it give?
The displacement was -3.2%.

For COC(=O)C1=C(C(=O)OC)SC(=C2C(=S)C(C)(C)N(C(=O)Cc3ccccc3)c3ccc(OC)cc32)S1, which displacement is on record?
Its displacement is -6.7%.

For CC(C)c1ccc(N2C(=O)NC(=O)/C(=C/c3ccc([N+](=O)[O-])o3)C2=O)cc1, which displacement is on record?
The displacement was -7.9%.

Which displacement does the source give for O=[N+]([O-])c1ccc(NS(=O)(=O)c2cccc3cccnc23)cc1 here?
Its displacement is 1%.

How did the displacement turn out when Cc1cc(C)c(S(=O)(=O)Nc2cc(Br)c(O)c3ccccc23)c(C)c1 was run?
Its displacement is 37%.

Cc1c(NC(=O)COc2ccc(F)cc2)c(=O)n(-c2ccccc2)n1C was tested. Which displacement did it give?
The displacement was 1.4%.

Which displacement does the source give for CC1C(c2ccc(Cl)cc2)NC(c2ccc(Cl)cc2)C(C)C1(O)c1ccc(F)cc1 (stereo unspecified) here?
Its displacement is -4.8%.

How did the displacement turn out when O=[N+]([O-])c1cc2c(cc1/C=N/n1cnnc1)OCO2 was run?
The displacement was 2.6%.

With NNC(=O)/C(=C/c1ccc2c(c1)OCO2)NC(=O)c1ccccc1 as the compound, how does the displacement read?
Its displacement is -2.7%.

Which displacement does the source give for COc1ccccc1C(=O)N/N=C(\C)c1ccc(C)o1 here?
Its displacement is -23.6%.

Which displacement does the source give for Cc1ccc(C2Nc3ccccc3NC3=C2C(=O)CC(c2ccccc2)C3)o1 (stereo unspecified) here?
Its displacement is 33.6%.

Which displacement does the source give for CCC/C(O)=C1/C(=O)CC(C)(C)CC1=NCCCCCCN=C1CC(C)(C)CC(=O)/C1=C(/O)CCC here?
Its displacement is 2.6%.

Which displacement does the source give for C=CCc1cccc2cc(C(=O)NCCc3ccccc3)c(=O)oc12 here?
Its displacement is 8.5%.

For COc1cccc(NC(=O)C2CC(=O)N=C(N)S2)c1 (stereo unspecified), which displacement is on record?
The displacement was 12.9%.

How did the displacement turn out when CCC(C)c1ccc(OCC(=O)Nc2ccc3c(c2)C(=O)N(c2cccc(C)c2C)C3=O)cc1 (stereo unspecified) was run?
Its displacement is -26.3%.

Which displacement does the source give for O=C(O)C1CCCCC1C(=O)Nc1nc2ccc(Br)cc2s1 (stereo unspecified) here?
The displacement was -9.7%.

O=C(CCCOc1ccccc1)Nc1ccccc1C(F)(F)F was tested. Which displacement did it give?
The displacement was -8.2%.

How did the displacement turn out when O=[N+]([O-])c1ccc(N2CCCCC2)cc1NCCCO was run?
The displacement was 4.2%.

With O=C(CSc1ncc(-c2ccccc2)[nH]1)Nc1ccc(Br)cc1 as the compound, how does the displacement read?
Its displacement is 7.7%.

O=C1CN(S(=O)(=O)CCOc2ccccc2)CC(=O)N1CCOc1ccccc1 was tested. Which displacement did it give?
The displacement was 4%.

With O=C1N=c2ccccc2=C1c1sc(=S)n(-c2ccc(F)cc2)c1O as the compound, how does the displacement read?
The displacement was 14.2%.

With Cc1ccc(/C=N/N2C(=O)c3ccccc3C2=O)s1 as the compound, how does the displacement read?
The displacement was 1.2%.

How did the displacement turn out when COc1ccc(N(CC(=O)Nc2cccc(Br)c2)S(C)(=O)=O)c(OC)c1 was run?
Its displacement is -5.7%.

Which displacement does the source give for CCCS(=O)(=O)c1c(S(=O)(=O)CCC)c2c(N)cccn2c1C(=O)OC here?
The displacement was 31.2%.

Which displacement does the source give for COc1cc([N+](=O)[O-])ccc1N=S(C)C here?
The displacement was 13.5%.

For CN1c2ccccc2C(C)(C)C12C=Cc1cc(C=O)ccc1O2 (stereo unspecified), which displacement is on record?
The displacement was 6.3%.

Which displacement does the source give for CC(C)C(=O)Nc1sc2c(c1C(=O)Nc1ccc(Br)cc1)CCC2 here?
The displacement was -2.7%.

For CC(=O)N(c1ccccc1Cl)S(=O)(=O)c1ccc(Cl)cc1, which displacement is on record?
Its displacement is 15.9%.

Which displacement does the source give for O=[N+]([O-])c1ccccc1NCCNS(=O)(=O)c1ccc(Cl)cc1 here?
The displacement was 6.9%.

CCOC(=O)Cn1c(C(F)(F)F)nc2ccccc21 was tested. Which displacement did it give?
Its displacement is -0.8%.

How did the displacement turn out when COc1cccc(OCCOc2ccccc2/C=C2/SC(=S)NC2=O)c1 was run?
Its displacement is 17.2%.

How did the displacement turn out when COc1ccc(OCCCN2CCCC2)cc1 was run?
The displacement was 11.6%.

For CCC(CC)NCc1ccccc1OC, which displacement is on record?
Its displacement is 5.2%.

Cc1c(Cl)c([N+](=O)[O-])nn1CC(=O)N1CCN(C)CC1 was tested. Which displacement did it give?
The displacement was -11.3%.
